Experimental data: patent US7592419B2, “Macrocyclic inhibitors of hepatitis C virus NS3-serine protease” (Schering Corporation, priority 2003, dated 2009)

These compounds were tested against Recombinant heterodimeric HCV NS3/NS4A protease (strain 1a) (Hepatitis C virus genotype 1a, UniProt P27958) (assay: Spectrophotometric assay for HCV protease inhibitory activity (chromogenic ester substrates)). Details: Table 1, 30° C., pH 6.5, read-out: Binding Activity (Ki rating).
Format: biochemical, hepatitis C virus (strain 1a)
Method: Assay for HCV Protease Inhibitory Activity:
Spectrophotometric Assay: Spectrophotometric assays for the HCV serine protease was performed on the inventive compounds by following the procedure described by R. Zhang et al, Analytical Biochemistry, 270 (1999) 268-275, the disclosure of which is incorporated herein by reference. The assay based on the proteolysis of chromogenic ester substrates is suitable for the continuous monitoring of HCV NS3 protease activity. The substrates were derived from the P side of the NS5A-NS5B junction sequence (Ac-DTEDVVX(Nva), where X=A or P) whose C-terminal carboxyl groups were esterified with one of four different chromophoric alcohols (3- or 4-nitrophenol, 7-hydroxy-4-methyl-coumarin, or 4-phenylazophenol). Presented below are the synthesis, characterization and application of these novel spectrophotometric ester substrates to high throughput screening and detailed kinetic evaluation of HCV NS3 protease inhibitors. Materials and Methods:
Protein concentrations were determined by the Biorad dye method using recombinant HCV protease standards previously quantified by amino acid analysis. Prior to assay initiation, the enzyme storage buffer (50 mM sodium phosphate pH 8.0, 300 mM NaCl, 10% glycerol, 0.05% lauryl maltoside and 10 mM DTT) was exchanged for the assay buffer (25 mM MOPS pH 6.5, 300 mM NaCl, 10% glycerol, 0.05% lauryl maltoside, 5 μM EDTA and 5 μM DTT) utilizing a Biorad Bio-Spin P-6 prepacked column.
Protease Assay: HCV protease assays were performed at 30° C. using a 200 μl reaction mix in a 96-well microtiter plate. Assay buffer conditions (25 mM MOPS pH 6.5, 300 mM NaCl, 10% glycerol, 0.05% lauryl maltoside, 5 μM EDTA and 5 μM DTT) were optimized for the NS3/NS4A heterodimer (D. L. Sali et al, ibid.)). Typically, 150 μl mixtures of buffer, substrate and inhibitor were placed in wells (final concentration of DMSO≦4% v/v) and allowed to preincubate at 30° C. for approximately 3 minutes. Fifty μls of prewarmed protease (12 nM, 30° C.) in assay buffer, was then used to initiate the reaction (final volume 200 μl). The plates were monitored over the length of the assay (60 minutes) for change in absorbance at the appropriate wavelength (340 nm for 3-Np and HMC, 370 nm for PAP, and 400 nm for 4-Np) using a Spectromax Plus microtiter plate reader equipped with a monochrometer (acceptable results can be obtained with plate readers that utilize cutoff filters). Proteolytic cleavage of the ester linkage between the Nva and the chromophore was monitored at the appropriate wavelength against a no enzyme blank as a control for non-enzymatic hydrolysis. The evaluation of substrate kinetic parameters was performed over a 30-fold substrate concentration range (−6-200 μM). Initial velocities were determined using linear regression and kinetic constants were obtained by fitting the data to the Michaelis-Menten equation using non-linear regression analysis (Mac Curve Fit 1.1, K. Raner). Turnover numbers (kcat) were calculated assuming the enzyme was fully active.
Evaluation of Inhibitors and Inactivators: The inhibition constants (Ki*) for the competitive inhibitors Ac-D-(D-Gla)-L-1-(Cha)-C-OH (27), Ac-DTEDVVA(Nva)-OH and Ac-DTEDWP(Nva)-OH were determined experimentally at fixed concentrations of enzyme and substrate by plotting vo/vi vs. inhibitor concentration ([I]o) according to the rearranged Michaelis-Menten equation for competitive inhibition kinetics: vo/vi=1+[I]o/(Ki(1+[S]o/Km)), where vo is the uninhibited initial velocity, vi is the initial velocity in the presence of inhibitor at any given inhibitor concentration ([I]o) and [S]o is the substrate concentration used. The resulting data were fitted using linear regression and the resulting slope, 1/(Ki(1+[S]o/Km), was used to calculate the Ki* value.

SMILES | Ki [nM]
CN(C)C(=O)[C@@H](NC(=O)CNC(=O)C(=O)[C@@H]1CCCCCCCCCC(C)(C)[C@H](NC(=O)OC(C)(C)C)C(=O)N2C[C@H]3[C@@H]([C@H]2C(=O)N1)C3(C)C)c1ccccc1 [Example 14] | < 100
CC(C)COC(=O)N[C@H]1CCCCCCCC(C(=O)C(=O)NCC(=O)N[C@H](C(=O)N(C)C)c2ccccc2)NC(=O)[C@@H]2CCCN2C1=O (stereo partly drawn) [Example 15] | ≥ 1000
C=CCNC(=O)C(=O)[C@@H]1CCCCCCCCC[C@H](NC(=O)OC(C)(C)C)C(=O)N2C[C@H]3[C@@H]([C@H]2C(=O)N1)C3(C)C [Example 22] | < 100
CC1(C)[C@@H]2[C@H]3C(=O)N[C@H](C(=O)C(N)=O)CCCCCCCCC[C@H](NC(=O)NC4(CS(=O)(=O)C(C)(C)C)CCCCC4)C(=O)N3C[C@@H]21 [Example 28] | < 100

Same assay, conditions: Table 2, 30° C., pH 6.5, read-out: Activity Ki* (nM) (rating)

SMILES | Ki [nM]
C=CCNC(=O)C(=O)[C@@H]1CCCCCCCOC[C@H](NC(=O)N[C@H](CN(C)S(=O)(=O)CC)C(C)(C)C)C(=O)N2C[C@H]3[C@@H]([C@H]2C(=O)N1)C3(C)C [Example 63] | < 100
C=CCNC(=O)C(=O)[C@@H]1CCCCCCCOC[C@H](NC=O)C(=O)N2C[C@H]3[C@@H]([C@H]2C(=O)N1)C3(C)C [Example 57] | ≥ 1000
CCS(=O)(=O)N(C)C[C@@H](NC(=O)N[C@H]1COCCCCCCC[C@@H](C(=O)C(=O)NC2CC2)NC(=O)[C@@H]2[C@@H]3[C@H](CN2C1=O)C3(C)C)C(C)(C)C [Example 64] | < 100
CC(C)(C)OC(=O)N[C@H]1CCCCCCCCC[C@@H](C(=O)C(=O)NC2CC2)NC(=O)[C@@H]2[C@@H]3[C@H](CN2C1=O)C3(C)C [Example 33] | < 100
C=CCNC(=O)C(=O)[C@@H]1CCCCCCCOC[C@H](NC(=O)NC2(CS(=O)(=O)C(C)(C)C)CCCCC2)C(=O)N2C[C@H]3[C@@H]([C@H]2C(=O)N1)C3(C)C [Example 53] | < 100
CC1(C)[C@@H]2[C@H]3C(=O)N[C@H](C(=O)C(=O)NC4CC4)CCCCCCCOC[C@H](NC(=O)NC4(CS(=O)(=O)C(C)(C)C)CCCCC4)C(=O)N3C[C@@H]21 [Example 62] | < 100

Same assay, conditions: Table 3, 30° C., pH 6.5, read-out: Activity Ki*

SMILES | Ki [nM]
C=CCNC(=O)C(=O)[C@@H]1CCCCCCCCC[C@H](NC(=O)OC(C)(C)C)C(=O)N2C[C@H]3[C@@H]([C@H]2C(=O)N1)C3(C)C [Example 22] | 36
CC1(C)[C@@H]2[C@H]3C(=O)N[C@H](C(=O)C(N)=O)CCCCCCCCC[C@H](NC(=O)NC4(CS(=O)(=O)C(C)(C)C)CCCCC4)C(=O)N3C[C@@H]21 [Example 28] | 5
